The results in this text go back to PMC3068692.

Residue numbers refer to the chain shown, from its start. Names and notes keep the numbering of the source. Results are given in words; binding and its absence hold for the method and conditions named. For part of these data: Binding seen in cells or lysates may run through a third protein. Some results given as binding are weak or reduced against the parent protein; the word gives no strength. For part of these data: Sequences can lack the tags named with a protein.

In assay [1] the target is T1, PspC fused to a Cya fragment (T25–PspC or T18–PspC) (E. coli) (UniProt P0AFN2).
T1 sequence: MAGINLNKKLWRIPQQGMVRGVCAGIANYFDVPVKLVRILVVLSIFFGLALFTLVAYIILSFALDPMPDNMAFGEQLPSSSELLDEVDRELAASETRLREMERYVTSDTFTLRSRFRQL
Kind of assay: two-hybrid; Cya-based bacterial two-hybrid (BACTH) in E. coli BTH101, LB at 30 °C, 0.5 mM IPTG for 1 h, β-galactosidase in liquid culture; threefold above vector alone scored positive; binder written as the T18 fusion, target as the T25 fusion.

Assay [2] addresses T2, PspG fused to a Cya fragment at its C-terminus (PspG–T25 or PspG–T18) (E. coli) (UniProt P32696).
T2 sequence: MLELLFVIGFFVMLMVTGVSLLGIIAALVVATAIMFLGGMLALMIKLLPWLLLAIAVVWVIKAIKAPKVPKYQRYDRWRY
The description is as above.

Assay [3] concerns the target T3, PspB fused to a Cya fragment at its C-terminus (PspB–T25 or PspB–T18) (E. coli) (UniProt P0AFM9).
T3 sequence: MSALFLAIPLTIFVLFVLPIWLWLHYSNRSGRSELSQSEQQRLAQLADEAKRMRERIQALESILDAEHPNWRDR
The description is as above.

The target of assay [4] is T4, PspC_(6His) (His-tagged PspC) (E. coli) (UniProt P0AFN2).
T4 sequence: T1 sequence
Put plainly: pull-down; PspC_(6His) co-expressed with PspB in E. coli Top10 (also Top10ΔpspA), lysate on a Ni-charged HiTrap metal-chelating column, buffer A (50 mM sodium phosphate pH 7, 300 mM NaCl, 5 % glycerol), eluted with 1 M imidazole; peak fractions blotted with anti-Psp antibodies; control with non-tagged PspC.

Assay [5] addresses T5, PspC fused to a Cya fragment (T25–PspC or T18–PspC) (E. coli), P0AFN2.
T5 chain: T1 sequence
Put plainly: two-hybrid; Cya-based bacterial two-hybrid (BACTH) in E. coli BTH101, LB at 30 °C, 0.5 mM IPTG for 1 h, β-galactosidase in liquid culture; threefold above vector alone scored positive; binder written as the T18 fusion, target as the T25 fusion. The note with it: remark: other sources report otherwise.

Assay [6] addresses T6, PspC_(1–68) fused to a Cya fragment at its N-terminus (E. coli) (UniProt P0AFN2).
T6 sequence: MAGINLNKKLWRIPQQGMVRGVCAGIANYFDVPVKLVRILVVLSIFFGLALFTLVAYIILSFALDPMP
The assay is described as above.

Assay [7] addresses T7, PspC_(40–119) fused to a Cya fragment at its N-terminus (E. coli) (UniProt P0AFN2).
T7 sequence: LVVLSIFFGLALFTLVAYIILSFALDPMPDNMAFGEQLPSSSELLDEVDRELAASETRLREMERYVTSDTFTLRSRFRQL
The description is as above.

Assay [8] addresses T8, PspC expressed from the chromosome (E. coli (endogenous in MG1655)), P0AFN2.
T8 chain: T1 sequence
Kind of assay: SDS-PAGE and Western blot for an SDS-PAGE-stable complex; whole cells of MG1655 or MG1655ΔpspA with or without pIV, anti-PspC blot; intensity of the slower-migrating band compared with that of monomeric PspC. The following applies: remark: other sources report otherwise.

In assay [9] the target is T9, PspC_(69–119) fused to a Cya fragment at its N-terminus (E. coli) (UniProt P0AFN2).
T9 sequence: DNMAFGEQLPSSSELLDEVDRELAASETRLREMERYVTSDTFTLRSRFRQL
Kind of assay: two-hybrid; Cya-based bacterial two-hybrid (BACTH) in E. coli BTH101, LB at 30 °C, 0.5 mM IPTG for 1 h, β-galactosidase in liquid culture; threefold above vector alone scored positive; binder written as the T18 fusion, target as the T25 fusion.

B1: PspG fused to a Cya fragment at its C-terminus (PspG–T25 or PspG–T18) (protein, UniProt P32696 1-80)
chain: T2 sequence
Consider B1, for which the results for the binding entry in assay [1], in assay [2] and in [3] were “binds”, “binds” and “no binding”, respectively.

B2: PspG of the E. coli cells (protein, UniProt P32696 1-80)
chain: T2 sequence
Regarding B2, the binding entry in assay [4] is listed as “binds”.

B3: PspC^G48A, T18 fusion (protein, UniProt P0AFN2 1-119)
chain: T1 sequence with G48A
Regarding B3, the binding entry is listed as “no binding” in assay [2] and “binds” in [3].

B4: PspC^G74A, T18 fusion (protein, UniProt P0AFN2 1-119)
chain: T1 sequence with G74A
Turning to B4, the binding entry in [2] and in [3] was “binds” each time.

B5: PspC fused to a Cya fragment (T25–PspC or T18–PspC), P0AFN2 1-119 (protein)
chain: T1 sequence
In the case of B5, in [5], the binding entry is given as “no binding”.

B6: PspC fused to a Cya fragment (T25–PspC or T18–PspC) (protein, UniProt P0AFN2 1-119)
chain: T1 sequence
B6: the binding entry in assay [2] was “binds”; in [3], “binds”; in assay [6], “no binding”; in assay [7], “no binding”.

B7: PspC expressed from the chromosome, P0AFN2 1-119 (protein)
chain: T1 sequence
For the molecule B7, the binding entry in [8] is listed as “no binding”.

B8: PspC_(1–68) fused to a Cya fragment at its N-terminus (domain or fragment, UniProt P0AFN2 1-68)
chain: T6 sequence
On to B8, for which the binding result is “no binding” in assay [1], “binds” in [3], “no binding” in [6] and “no binding” in assay [7].

B9: PspB fused to a Cya fragment at its C-terminus (PspB–T25 or PspB–T18) (protein, UniProt P0AFM9 1-74)
chain: T3 sequence
Consider B9, for which the binding entry in assay [1] is “binds”; in assay [2], “no binding”; in [3], “binds”; in assay [9], “no binding”; in [6] it was “binds”; in assay [7] it was “binds”.

B10: WT PspB (no tag named) (protein, UniProt P0AFM9 1-74)
chain: T3 sequence
In the case of B10, the binding result in assay [4] is reported as “binds”.

B11: PspC_(69–119) fused to a Cya fragment at its N-terminus (domain or fragment, UniProt P0AFN2 69-119)
chain: T9 sequence
On to B11, for which, in [3], the binding result is listed as “no binding”.

B12: ArcB, T18 fusion (protein, UniProt P0AEC3 1-778)
chain: MKQIRLLAQYYVDLMMKLGLVRFSMLLALALVVLAIVVQMAVTMVLHGQVESIDVIRSIFFGLLITPWAVYFLSVVVEQLEESRQRLSRLVQKLEEMRERDLSLNVQLKDNIAQLNQEIAVREKAEAELQETFGQLKIEIKEREETQIQLEQQSSFLRSFLDASPDLVFYRNEDKEFSGCNRAMELLTGKSEKQLVHLKPADVYSPEAAAKVIETDEKVFRHNVSLTYEQWLDYPDGRKACFEIRKVPYYDRVGKRHGLMGFGRDITERKRYQDALERASRDKTTFISTISHELRTPLNGIVGLSRILLDTELTAEQEKYLKTIHVSAVTLGNIFNDIIDMDKMERRKVQLDNQPVDFTSFLADLENLSALQAQQKGLRFNLEPTLPLPHQVITDGTRLRQILWNLISNAVKFTQQGQVTVRVRYDEGDMLHFEVEDSGIGIPQDELDKIFAMYYQVKDSHGGKPATGTGIGLAVSRRLAKNMGGDITVTSEQGKGSTFTLTIHAPSVAEEVDDAFDEDDMPLPALNVLLVEDIELNVIVARSVLEKLGNSVDVAMTGKAALEMFKPGEYDLVLLDIQLPDMTGLDISRELTKRYPREDLPPLVALTANVLKDKQEYLNAGMDDVLSKPLSVPALTAMIKKFWDTQDDEESTVTTEENSKSEALLDIPMLEQYLELVGPKLITDGLAVFEKMMPGYVSVLESNLTAQDKKGIVEEGHKIKGAAGSVGLRHLQQLGQQIQSPDLPAWEDNVGEWIEEMKEEWRHDVEVLKAWVAKATKK
With B12, the binding entry in [1] and in assay [3] was “binds weakly” throughout.

B13: PspC_(40–119) fused to a Cya fragment at its N-terminus (domain or fragment, UniProt P0AFN2 40-119)
chain: T7 sequence
In the case of B13, the binding entry in [1] is on record as “no binding”; in assay [3], “binds”; in assay [6], “no binding”; in assay [7], “no binding”.

B14: PspC_(40–119) fused to T18 at its C-terminus (domain or fragment, UniProt P0AFN2 40-119)
chain: T7 sequence
As for B14, the binding entry in assay [3] is reported as “binds”.
